Reference: PubChem BioAssay (NCI)
“And” between values parts separate entries of the source, which are not always exact repeats. Identical values can stand only once.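 Five concentrations, 48 hours, 96-well plates. GI50 = concentration required for 50% inhibition of growth. TGI is the concentration that stops growth completely.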

What follows are compounds tested on NCI-H322M lung (assay: NCI-60 cell line screen, 48 h).
With `CCOc1ccc(NC(=O)C2=C(C)NC(C)=C(C(=O)Nc3ccc(OCC)cc3)C2c2ccccc2)cc1` the TGI was > 100 µM.
`c1ccc(C[N+]23CN4CN(CN(C4)C2)C3)cc1` was tested, and the TGI was > 100 µM.
Work on `CC(=O)OCCOc1cc2c([nH]c3ccccc32)c(C)c2cccc1-2` yielded a TGI of 28.2 µM.
With `CC1=C[P+](Cc2ccccc2)(c2ccccc2)CC1` (configuration not stated) the GI50 was > 100 µM and 44.1 µM and the TGI was > 100 µM.
For `CN(CC(=O)O)c1ncc2c(n1)-c1ccccc1OC2`, the TGI was > 100 µM.
With `NS(=O)(=O)c1ccc(Nc2c3ccccc3nc3c(C(=O)NCCO)cccc23)cc1` the TGI was 0.446 µM.
For `O=c1oc(=O)c2oc3ccccc3oc1=2`, the TGI was > 100 µM.
For `CNc1nnc(CNc2ccc(-c3nnc(NC)n3N)cc2)n1N`, the TGI was > 100 µM.
`C=CCNS(=O)(=O)c1ncnc2nc[nH]c12` was tested, and the TGI was > 100 µM.
For `CNC(=O)Oc1cc(C)c(/C=C/c2cncc(C(=O)NC)c2)c(C)c1`, the GI50 was > 25 µM and the TGI was > 25 µM.
For `COC1O[C@H]2[C@H]3[C@@H]1[C@@H](OS(=O)(=O)c1ccc(C)cc1)C(=O)N3C[C@H]2O` (some centres not stated), the TGI was > 100 µM.
For `CCOP(=O)(OCC)[C@H]1OC(C)(C)O[C@@H]1CO`, the TGI was > 100 µM.
For `COc1ccc(/C(CC2OC(=O)c3ccccc32)=N\NC(=O)C[N+](C)(C)C)cc1` (configuration not stated), the TGI was > 100 µM.
`Cn1/c(=N\N=C(\CNCCO)[C@@H](O)[C@@H]2OC(c3ccccc3)OC[C@H]2O)sc2ccccc21` (some centres not stated) was tested, and the TGI was 36.8 µM.
With `O[C@@H]1C[C@H]2N3CC[C@@]2(c2cc4c(cc2C3)OCO4)[C@H]2O[C@@H]12` the TGI was > 100 µM.
Work on `O=C1OC(c2ccccc2)(c2cc(Br)c(O)c(Br)c2)c2ccccc21` (configuration not stated) yielded a GI50 of 23.2 µM and a TGI of 69.2 µM.
`CN1CC(CNC(=O)OCc2ccccc2)CC2c3cccc4c3c(cn4C)CC21` (configuration not stated) gave a GI50 of 3.92 µM and a TGI of 15.2 µM.
With `S=c1nc(Cl)cc2[nH]c(Cl)cn12` the TGI was > 100 µM.
With `Clc1cc2n[se]nc2cc1Cl` the TGI was > 100 µM.
For `O=c1c2ccccc2c2ccccc2c(=O)n1Cc1ccc2c(c1)OCO2`, the TGI was > 100 µM.
With `CCCCCCCCCCCCCCCCOCC(CCl)OP(=O)(O)OP(=O)(O)OCC1OC(n2ccc(N)nc2=O)C(O)C1O` (configuration not stated) the TGI was > 100 µM.
`COc1c(OC/C=C(\C)CCC=C(C)C)ccc2ccc(=O)oc12` was tested, and the TGI was > 100 µM.
In the case of `CCCCN(CCCC)CCCn1c(=O)c2c3ccccc3n(C)c2n2nnc(-c3ccccc3)c12`, the GI50 is reported as 28.8 µM and the TGI is reported as > 100 µM.
With `COC(=O)Nc1nc2ccc(NC(=O)c3cccs3)cc2[nH]1` the TGI was > 100 µM.
With `O=C1c2ccccc2C(=O)N1C/C=C/CO` the TGI was > 100 µM.
In the case of `Br/C(=N\Nc1nn[nH]n1)c1ccncc1`, the TGI is reported as > 100 µM.
In the case of `N#C/C(=C/Sc1ccccc1)C(=O)O`, the TGI is reported as > 100 µM.
In the case of `C[n+]1ccc(-c2c3nc(c(-c4cc[n+](C)cc4)c4ccc([n-]4)c(-c4cc[n+](C)cc4)c4nc(c(-c5cc[n+](C)cc5)c5ccc2[n-]5)C=C4)C=C3)cc1.[I-].[Zn+2]`, the GI50 is reported as 32.2 µM and the TGI is reported as 74.8 µM.
In the case of `O=C(NCC(O)CNC(=O)C(F)(F)F)C(F)(F)F`, the TGI is reported as > 100 µM.
For `CC(O)C1(CNc2cc(Cl)nc(N)n2)CC(CCc2ccccc2)C1` (configuration not stated), the TGI was 27.5 µM.
In the case of `O=c1[nH]cnc2c1ncn2[C@@H]1C[C@H]1CO`, the TGI is reported as > 100 µM.
With `O=[N+]([O-])c1c(C=Nc2ccccc2)oc(-c2ccc3c(c2)OCO3)c1-c1ccc2c(c1)OCO2` the TGI was > 100 µM.
With `Cc1ccc(NC2=N/C(=C/c3ccccc3)C(Cl)=N2)cc1` the TGI was > 100 µM.
Work on `COc1cc(/C=C/C(=O)CC(=O)/C=C/c2ccc(O)c(OC)c2)ccc1O` yielded a TGI of 32.1 µM.
`CN1Cc2cc3c(cc2-c2ccccc21)OCO3` was tested, and the TGI was > 100 µM.
For `O=c1c2c3c(sc2nc(N/N=C/c2ccc(Br)cc2)n1Cc1ccccc1)CCCC3`, the GI50 was 7.22 µM and the TGI was > 100 µM.
With `O=C(c1cc2c(c3ccccc13)NCCN=C2C(F)(F)F)C(F)(F)F` the TGI was > 100 µM.
In the case of `O=c1oc2ccc(-n3c(=O)c4ccccc4c4ccccc4c3=O)cc2c2ccccc12`, the TGI is reported as > 100 µM.
With `Cc1cc(Oc2ccc3nc(COc4ccc(CC5SC(=O)NC5=O)cc4)n(C)c3c2)cc(C)c1N` (configuration not stated) the GI50 was 49.2 µM and the TGI was > 100 µM.
Work on `C[C@H]1[C@H]2[C@H]3CC[C@@H]4[C@@]5(C)C/C(=C/c6cccnc6)C(=O)C(C)(C)[C@@H]5CC[C@@]4(C)[C@]3(C)CC[C@]23CO[C@]1(C)[C@@H](C(=O)/C=C\c1cccnc1)C3` yielded a GI50 of 2.12 µM and a TGI of 8.84 µM.
With `COC(=O)CSC(=S)Nc1nnc(NC(=S)SCOC(C)=O)n1C(=S)SCC(=O)OC` the TGI was > 100 µM.
For `O=c1[nH]c(-n2[nH]c3c(c2=O)CCCC3)nc(O)c1-c1ccccc1`, the TGI was > 100 µM.
`c1ccc(CN=C(NCc2ccccc2)NCc2ccccc2)cc1` was tested, and the GI50 was 8.64 µM and the TGI was 21.5 µM.
`CNC(=O)c1cccc2c(Nc3ccc(NS(C)(=O)=O)cc3OC)c3cccc(C)c3nc12` gave a TGI of 13.7 µM.
For `Cn1c2c3ccc(Cl)cc3nc-2c(Cl)c2ccccc21`, the TGI was > 100 µM.
With `O=C(NO)c1ccc(Cn2c(=O)n(-c3ccccc3F)c(=O)c3ccccc32)cc1` the GI50 was 2.33 µM and the TGI was 8.88 µM.
For `CC(C)N1CN(C(C(=O)N[C@@H]2C(=O)N3C2SC(C)(C)C3C(=O)O)c2ccc(O)cc2)CSC1=S` (some centres not stated), the TGI was > 100 µM.
In the case of `C/C(=N\NC(=S)N(C)CCN(C)C(=S)N/N=C(\C)c1ccccn1)c1ccccn1`, the TGI is reported as 15.4 µM.
For `O=C(COc1ccc(Cl)c(Cl)c1)N(Cc1ccccc1)Cc1ccc[n+](Cc2ccc(Cl)cc2S(=O)(=O)F)c1`, the TGI was > 100 µM.
For `Cc1cc(-c2nc3ccc(F)cc3s2)ccc1N`, the TGI was > 100 µM.
With `CSc1nc(SC)c2ncn(C3CC(Oc4ccc(C)cc4)C(COc4ccc(C)cc4)O3)c2n1` (configuration not stated) the TGI was > 100 µM.
